According to PubChem BioAssay AID493208 (National Center for Advancing Translational Sciences (NCATS), 2011):
Out of some 44,000 compounds screened, about 340 (0.77%) were called active. Another 5% or so got no clear call; they are omitted. Calls follow the shape of the dose curve; as a rule, active = well fitted inhibition curve with a large enough effect; inconclusive = small, poorly fitted or top-dose-only effect; inactive = flat fitted curve, though single readings scatter. The list shows a part of the results.

Experiment: Acumen qHTS Assay for Inhibitors of the mTORC1 Signaling Pathway in MEF (Tsc2-/-, p53-/-) Cells: Sytravon;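 also: plate controls were DMSO for no effect and rapamycin for full effect; nearly all actives have a fitted effect of over 50% in size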
Conditions: phospho-rpS6 immunofluorescence/PI, 24 h; series mostly up to 38.3 µM; activity change, negative = inhibition: at the top concentration
Summary of the method: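 Tsc2-/-, p53-/- MEFs (empty-vector stable line) in DMEM + 10% FBS were treated with compounds 24 h at 37 degree Celsius, fixed, and immunostained for phospho-rpS6 (Alexa-488) with propidium iodide counterstain. Laser-scanning cytometry gave % positive cells, normalized against 7.5 nM rapamycin and DMSO.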

Activity change, negative = inhibition, inactive:
O=C(Cc1ccccc1)N(Cc1cccnc1)c1nc2c(F)cc(F)cc2s1 -3.05%
CC(C)c1ccc(OCC(=O)NC(Cc2c[nH]c3ccccc23)C(=O)O)cc1 (centres undefined) -12.1%
CCOC(=O)c1c(C)oc2ccc(N(C(=O)Oc3ccccc3)S(=O)(=O)c3ccc(CC)cc3)cc12 -3.84%
O=C(Nc1cc(Cl)cc(Cl)c1)c1ccc(F)c(S(=O)(=O)N2CCc3ccccc32)c1 -8.8%
COc1ccc(CCNC(=O)c2ccc3c(c2)N(Cc2c(F)cccc2Cl)C(=O)CS3)cc1OC 3.78%
Cc1cccc(OC(=O)CSc2nnc(CNC(=O)c3ccccc3)o2)c1C 0%
O=C(Nc1ccc(F)cc1)c1oc2ccccc2c1NC(=O)C12CC3CC(CC(C3)C1)C2 -2.83%
CCc1ccccc1NC(=O)CN(Cc1ccccc1)S(=O)(=O)c1ccc(Br)cc1 14%
COc1ccc(NC(=O)C(C)n2nc(-c3ccc(C)c(C)c3)ccc2=O)cc1OC (centres undefined) -4.4%
CCc1nnc(SCc2cc(C)ccc2C)c2cc3sc(C)cc3n12 -2.2%
COc1cccc(NC(=O)CSC2=Nc3ccccc3C3=NC(CC(=O)NC4CCCCC4)C(=O)N23)c1 (centres undefined) -6.41%
CCOC(=O)c1c(C)[nH]c(C)c1S(=O)(=O)N1CCC(C(=O)N2CCN(c3ccccc3F)CC2)CC1 5.53%
Cc1ccc(-n2c(SCc3cccc(F)c3)nc3[nH]ncc3c2=O)cc1C 1.22%
Cc1ccc2c(c1)-c1cc(C)nn1C(c1cc(Br)ccc1O)N2 (centres undefined) -19.4%
COc1cc(OC)c(OC)cc1/C=C/c1nc2cc3ccccc3cc2c(=O)n1-c1ccc(F)cc1F 10.5%
COc1ccc(C2CC(=O)c3cc(-c4nc(-c5ccc(Cl)cc5)c(C)s4)c(=O)[nH]c3C2)cc1 (centres undefined) -13.4%
O=S(=O)(Nc1nc2n(n1)C(c1ccc(F)cc1)C=C(c1ccccc1)N2)c1ccccc1 (centres undefined) -9.55%
Cc1ccc2ncc(C(=O)Nc3ccc(F)cc3F)c(=O)n2c1 2.48%
COC(=O)c1ccc2c(=O)n(CCCCCC(=O)NCc3ccc(Cl)cc3)c(=O)[nH]c2c1 -10.2%
CCc1ccc(CNC(=O)c2ccc(NC(=O)N3CC(C)Sc4ccccc43)cc2)cc1 (centres undefined) 1.06%
Cc1cc(C)c2c(=O)cc(C(=O)Nc3ccccc3C(F)(F)F)oc2c1 1.35%
CC(=O)c1ccc(N2CCN(c3ccc(NC(=O)c4ccc(F)cc4)cc3C(=O)O)CC2)cc1 -3.5%
Cc1cc(NC(=O)CCS(=O)(=O)c2cc3c4c(c2)CCN4C(=O)CC3)ccc1Br -0.48%
CC(C)(C)c1ccc(C(=O)NCC(c2cccs2)S(=O)(=O)c2ccccc2)cc1 (centres undefined) -9.6%
CC(C)OCCCNC(=O)c1ccc2c(c1)NC(=O)c1ccccc1S2 -0.0176%
COC(=O)c1ccccc1NC(=O)CSc1nc2ccccc2nc1Cc1ccccc1OC -16.5%
CCOC(=O)c1c(-c2ccc(Br)cc2)csc1NC(=O)c1ccc(F)cc1 5.28%
O=C(CCS(=O)(=O)c1cc(Br)cc2c1N(C(=O)C1CC1)CC2)NCc1ccc(Cl)cc1 -4.93%
CN(C(=O)c1cc2nc(-c3ccco3)cc(C(F)(F)F)n2n1)c1ccc(OC(F)(F)Cl)cc1 -4.42%
O=C(Nc1cc(-c2nc3ccccc3o2)ccc1Cl)c1ccc(N2CCCCC2)c([N+](=O)[O-])c1 3.18%
COc1ccc(C2c3c(n(C)c4ccccc34)C(=O)N2CC(=O)Nc2ccc(C)c(Cl)c2)cc1 (centres undefined) -11%
Cc1ccc(NC(=O)Cn2cc(S(=O)(=O)c3ccc(C)cc3)c(=O)c3cc4c(cc32)OCO4)cc1 -0.86%
Cc1ccc(-c2nc(SCCOc3ccccc3C)n3[nH]c(=O)cc3n2)cc1 10.3%
CCOC(=O)C1CCN(c2nc3c(S(=O)(=O)c4ccccc4)nnn3c3ccsc23)CC1 -0.781%
CCc1ccccc1N(CC)C(=O)c1c(C)oc2ncnc(N3CCOCC3)c12 5.92%
Cc1ccccc1C(=O)Nc1ccc(OCc2cc(=O)n3cccc(C)c3n2)cc1 5.25%
O=c1c2oc3ccccc3c2n(Cc2ccc(Cl)cc2)c(=O)n1Cc1ccco1 -6.73%
O=C1COc2cc(S(=O)(=O)NCc3ccco3)c(Cl)cc2N1 -0.25%
CC1=C(c2ccc(C)c(C)c2)S(=O)(=O)N=C1N1CCC(C(=O)N2CCC(C(N)=O)CC2)CC1 5.65%
Cc1cccc(CN2CCC(CNC(=O)c3c(C)oc4ncnc(N5CCCCC5)c34)CC2)c1 -8.49%
CCN(C(=O)C1CCC(CNS(=O)(=O)c2cccc3nsnc23)CC1)c1ccc(C)c(C)c1 (centres undefined) -7.43%
CC(Sc1nc(=O)cc(N)n1CCc1ccccc1)C(=O)Nc1ccc(Cl)cc1 (centres undefined) -3.37%
CC(=O)N1CCOc2cc(S(=O)(=O)NC(C)c3ccccc3)c(Cl)cc21 (centres undefined) -0.6%
Cc1cccc(C(=O)Nc2sc3c(c2C(=O)N2CCCCC2)CCC(C)C3)c1 (centres undefined) 11.2%
O=C(CCc1cn(Cc2ccc(F)cc2)c2ccccc12)NCCc1ccc(Cl)cc1 -8.59%
CCN(c1ccccc1)c1nnc(NC(=O)Nc2ccc(Br)cc2)s1 4.86%
Cn1cnc(S(=O)(=O)N2CCC(C(=O)NCc3ccccc3Cl)CC2)c1 5.91%
COc1cccc(NC(=O)CSc2nc3ccc(NC(=O)c4cccs4)cc3s2)c1 -2.25%
CCOC(=O)c1c(NC(=O)/C=C/c2ccc(C(C)C)cc2)sc2c1CCC2 16%
Cc1ccc(NC(=O)Nc2nnc(N3CCCC3)s2)cc1 -6.32%
CCc1ccc(OC(C)c2nc(-c3ccc(-n4cccc4)cc3)no2)cc1 (centres undefined) -12.4%
CNS(=O)(=O)c1cn(CC(=O)N2CCN(c3ccccc3F)CC2)cc1S(=O)(=O)NC -0.65%
CCOc1ccc(CCNc2ncnc3onc(-c4ccc(Cl)cc4)c23)cc1OCC -15.8%
COCc1nc2cccnc2n1C1CCN(S(=O)(=O)N(C)C)CC1 5.75%
COc1ccc(NC(=O)C(c2ccc(C)cc2)N(C)C(=O)/C=C\c2ccc3c(c2)OCO3)cc1 (centres undefined) 1.79%
O=S(=O)(NCc1csc(-c2ccccc2)n1)c1cccc(F)c1 -0.301%
CCOC(=O)c1ccc(NC(=O)CCc2c(C)nc3c(c(C)nn3-c3ccccc3)c2C)cc1 -0.88%
O=C(Cn1c(SCc2cccc(F)c2)nc2cccnc21)Nc1ccc(F)c(Cl)c1 -3.7%
CC(=O)c1ccc(NC(=O)CCc2c(C)nc3c(c(C)nn3-c3ccc(C)cc3)c2C)cc1 -3.08%
